Out of some 3,200 compounds screened, about 75 (2%) showed an effect of 50% or more. This is one part of the list.
What follows are compounds tested on T1, S. aureus MSSA476. Conditions: relative growth, OD600, TSB; 25 µM; inhibitor.
T1 construct: MSSA476
Parameters: species or system S. aureus MSSA476 (TSB) or V. cholerae SAD30 (LB); 384-well bacterial growth screen at 25 uM, OD600 relative to DMSO control

SMILES | % of control remaining [%]
CC(NC(=O)C(C#N)=Cc1cccc(F)c1)c1ccccc1 (stereo not shown) [8-L18, 2-cyano-3-(3-fluorophenyl)-N-(1-phenylethyl)prop-2-enamide] | 72.6971
C=CC(=O)NC1(c2nccc(C(F)(F)F)n2)CC1 [2-D07, N-{1-[4-(trifluoromethyl)pyrimidin-2-yl]cyclopropyl}prop-2-enamide] | 113.142
O=C(CCl)NCc1ccccc1Cn1cccn1 [5-P06, 2-chloro-N-({2-[(1H-pyrazol-1-yl)methyl]phenyl}methyl)acetamide] | 89.9818
C=CC(=O)Nc1cc(NC(=O)C2CCC2)ccc1F [2-E10, N-[4-fluoro-3-(prop-2-enamido)phenyl]cyclobutanecarboxamide] | 111.749
Cc1ccc(C(=O)c2c(NC(=O)CCl)sc3c2CCCC3)cc1 [6-A12, 2-chloro-N-[3-(4-methylbenzoyl)-4,5,6,7-tetrahydro-1-benzothiophen-2-yl]acetamide] | 138.976
CN(CCc1ccccc1O)C(=O)CCl [7-P21, 2-chloro-N-[2-(2-hydroxyphenyl)ethyl]-N-methylacetamide] | 103.611
CN(C1CCCCC1)S(=O)(=O)c1ccccc1NC(=O)CCl [5-N10, 2-chloro-N-{2-[cyclohexyl(methyl)sulfamoyl]phenyl}acetamide] | 179.599
CC(c1ccc(C(F)(F)F)cc1F)N(C)C(=O)CCl (stereo not shown) [7-P18, 2-chloro-N-{1-[2-fluoro-4-(trifluoromethyl)phenyl]ethyl}-N-methylacetamide] | 94.5055
N#CC(=Cc1cccc(O)c1)C(=O)NCc1ccco1 [9-F21, 2-cyano-N-[(furan-2-yl)methyl]-3-(3-hydroxyphenyl)prop-2-enamide] | 111.161
NC(=O)c1ccc(NC(=O)CCl)cc1 [4-P04, 4-(2-chloroacetamido)benzamide] | 95.2835
C=CC(=O)Nc1ccc(N(C)S(=O)(=O)CC)cc1 [3-H06, N-[4-(N-methylethanesulfonamido)phenyl]prop-2-enamide] | 95.0805
C=CC(=O)NCCc1nnc(C(C)C)s1 [2-L05, N-{2-[5-(propan-2-yl)-1,3,4-thiadiazol-2-yl]ethyl}prop-2-enamide] | 123.238
CC(Cl)C(=O)NCc1nnc2n1-c1ccccc1CC2 (stereo not shown) [6-N14, 2-chloro-N-({4H,5H-[1,2,4]triazolo[4,3-a]quinolin-1-yl}methyl)propanamide] | 92.5366
CC(Cl)C(=O)Nc1ccc2c(c1)CCC2 (stereo not shown) [5-C19, 2-chloro-N-(2,3-dihydro-1H-inden-5-yl)propanamide] | 116.94
CN(C1CCCCC1)S(=O)(=O)c1ccc(NC(=O)CCl)cc1 [5-E03, 2-chloro-N-{4-[cyclohexyl(methyl)sulfamoyl]phenyl}acetamide] | 100.911
CC(Cl)C(=O)Nc1cccc(S(=O)(=O)N2CCCCC2)c1 (stereo not shown) [5-L12, 2-chloro-N-[3-(piperidine-1-sulfonyl)phenyl]propanamide] | 97.6321
CC(=O)c1ccccc1NC(=O)C(C)Cl (stereo not shown) [5-O19, N-(2-acetylphenyl)-2-chloropropanamide] | 103.825
C=CC(=O)Nc1cccc(OC(C)(C)C)c1 [3-G14, N-[3-(tert-butoxy)phenyl]prop-2-enamide] | 91.2495
CC(=O)c1c(C)[nH]c(C(=O)C(C)Cl)c1C (stereo not shown) [10-P22, 1-(4-acetyl-3,5-dimethyl-1H-pyrrol-2-yl)-2-chloropropan-1-one] | 113.125
N#CC(=Cc1cc2cc(F)ccc2o1)C(=O)NC(N)=O [8-C22, {2-cyano-2-[(5-fluoro-1-benzofuran-2-yl)methylidene]acetyl}urea] | 73.6929
N#CC(=Cc1ccsc1)C(=O)NCc1ccco1 [9-H22, 2-cyano-N-[(furan-2-yl)methyl]-3-(thiophen-3-yl)prop-2-enamide] | 88.6891
C=CC(=O)N1CCC(C(=O)N(C)C(C)c2sc(CC)nc2C)CC1 (stereo not shown) [2-P04, N-[1-(2-ethyl-4-methyl-1,3-thiazol-5-yl)ethyl]-N-methyl-1-(prop-2-enoyl)piperidine-4-carboxamide] | 93.6466
CC(Cl)C(=O)Nc1ccccc1 (stereo not shown) [5-F10, 2-chloro-N-phenylpropanamide] | 97.2678

SMILES | % of control remaining [%]
CC(Cl)C(=O)Nc1cccc2ccccc12 (stereo not shown) [5-N12, 2-chloro-N-(naphthalen-1-yl)propanamide] | 98.3607
Cc1ccc(C=C(C#N)C(=O)NC2CCCCC2)cc1C [8-G10, 2-cyano-N-cyclohexyl-3-(3,4-dimethylphenyl)prop-2-enamide] | 108.216
CC(=O)Nc1ccc(C2=NN(C(=O)CCl)C(c3ccco3)C2)cc1 (stereo not shown) [4-G22, N-{4-[1-(2-chloroacetyl)-5-(furan-2-yl)-4,5-dihydro-1H-pyrazol-3-yl]phenyl}acetamide] | 99.8571
O=C(CCl)NC1CCN(C(=O)C2COc3ccccc3O2)CC1 (stereo not shown) [5-C09, 2-chloro-N-[1-(2,3-dihydro-1,4-benzodioxine-2-carbonyl)piperidin-4-yl]acetamide] | 129.69
C=CC(=O)N1CC(C(N)=O)Oc2ccccc21 (stereo not shown) [1-A09, 4-(prop-2-enoyl)-3,4-dihydro-2H-1,4-benzoxazine-2-carboxamide] | 119.56
C=CC(=O)NCc1c(C(F)(F)F)coc1C [1-E17, N-{[2-methyl-4-(trifluoromethyl)furan-3-yl]methyl}prop-2-enamide] | 104.44
N#CC(=Cc1ccc(O)c([N+](=O)[O-])c1)C(=O)Nc1ccccc1C(=O)O [9-G10, 2-[2-cyano-3-(4-hydroxy-3-nitrophenyl)prop-2-enamido]benzoic acid] | 87.191
CC(Cl)C(=O)N[C@H]1C[C@H](Cn2cncn2)C1 (stereo partly shown) [6-D20, 2-chloro-N-[(1r,3r)-3-[(1H-1,2,4-triazol-1-yl)methyl]cyclobutyl]propanamide] | 115.756
C=CC(=O)NC(C)c1ccc(S(=O)(=O)N(C)C)cc1 (stereo not shown) [3-A20, N-{1-[4-(dimethylsulfamoyl)phenyl]ethyl}prop-2-enamide] | 127.122
O=C1C=CC(=O)N1CCc1ccccc1F [10-G03, 1-[2-(2-fluorophenyl)ethyl]-2,5-dihydro-1H-pyrrole-2,5-dione] | 4.375
CC(C)Cn1c(N)c(C(=O)CCl)c(=O)[nH]c1=O [10-F08, 6-amino-5-(2-chloroacetyl)-1-(2-methylpropyl)-1,2,3,4-tetrahydropyrimidine-2,4-dione] | 115.625
O=C(CCl)NC(CC1CC1)c1ccc(Cl)cn1 (stereo not shown) [6-F19, 2-chloro-N-[1-(5-chloropyridin-2-yl)-2-cyclopropylethyl]acetamide] | 93.561
Cc1cccc(C)c1NC(=O)C(C#N)=Cc1ccc(OC(F)F)cc1 [8-A11, 2-cyano-3-[4-(difluoromethoxy)phenyl]-N-(2,6-dimethylphenyl)prop-2-enamide] | 92.9461
CC(Cl)C(=O)NCC1CN(S(C)(=O)=O)C1 (stereo not shown) [7-C04, 2-chloro-N-[(1-methanesulfonylazetidin-3-yl)methyl]propanamide] | 101.099
O=C(CCl)NCc1cc(C(F)F)no1 [6-H08, 2-chloro-N-{[3-(difluoromethyl)-1,2-oxazol-5-yl]methyl}acetamide] | 107.561
CCc1ccc(-c2nn(-c3ccccc3)cc2C=C(C#N)C(N)=O)cc1 [8-O22, 2-cyano-3-[3-(4-ethylphenyl)-1-phenyl-1H-pyrazol-4-yl]prop-2-enamide] | 96.9295
CC(Cl)C(=O)NCc1ccc2cnn(C)c2c1 (stereo not shown) [7-D21, 2-chloro-N-[(1-methyl-1H-indazol-6-yl)methyl]propanamide] | 90.7378
COc1ccccc1C(NC(=O)C(C)Cl)c1ccco1 (stereo not shown) [5-H19, 2-chloro-N-[(furan-2-yl)(2-methoxyphenyl)methyl]propanamide] | 92.1676
CN1CCN(C(=O)Cc2cccc(NC(=O)CCl)c2)CC1 [5-C22, 2-chloro-N-{3-[2-(4-methylpiperazin-1-yl)-2-oxoethyl]phenyl}acetamide] | 98.3607
CCc1cnc(N2CCN(C(=O)C(C)Cl)CC2)s1 (stereo not shown) [7-C20, 2-chloro-1-[4-(5-ethyl-1,3-thiazol-2-yl)piperazin-1-yl]propan-1-one] | 99.2151
C=CC(=O)N1CC2(CCOCC2)C1c1ccco1 (stereo not shown) [1-D22, 1-[1-(furan-2-yl)-7-oxa-2-azaspiro[3.5]nonan-2-yl]prop-2-en-1-one] | 112.527
N#CC(=Cc1cccc(F)c1)C(=O)NCCc1ccccc1 [8-J22, 2-cyano-3-(3-fluorophenyl)-N-(2-phenylethyl)prop-2-enamide] | 66.39
N#CC(=Cc1cccs1)C(=O)Nc1cccc2ncccc12 [8-D20, 2-cyano-N-(quinolin-5-yl)-3-(thiophen-2-yl)prop-2-enamide] | 100.913

Reference: paper PMC11995724, “Antibiotic target discovery by integrated phenotypic and activity-based profiling of electrophilic fragments” (Cell chemical biology, 2025)
